# Data taken from publication PMC12040169 (PLOS Biology, 2025).
# The other results are listed elsewhere or left out.
# Test system: T1, C. trachomatis L2/434/Bu expressing GFP (CTL2-GFP)
# T1 construct: L2/434/Bu GFP intracellular growth in HeLa cells
# Set-up: species or system HeLa; C. trachomatis total inclusion area by high-content imaging, normalised to DMSO
# Settings: total inclusion area; 28.5 h, 10 µM; inhibitor
# How it was run: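 Bulk GFP and resorufin signals were read first. Wells were then fixed, stained with Hoechst and imaged to detect GFP inclusions and host nuclei. MICs followed the previously described calculation.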
row,Compound,% of control remaining
1,c1coc(-c2cc3ncc4c(n3n2)CC2CCC4N2)c1 (centres unmarked) [CBK284381],74.4105
2,O=C(NCCc1ccc(Cl)cc1)C1(Cc2ccc(-c3cccnc3)cc2)CCOCC1 [CBK285589],66.241
3,CC1(C)CCCN(Cc2nnnn2-c2ccc(S(C)(=O)=O)cc2)C1 [CBK306181],70.3929
4,Oc1ccccc1CNC1(Cc2cc(-c3ccc(F)cc3)on2)COC1 [CBK289655],88.438
5,COCCCN(Cc1ccccn1)Cc1c(F)cccc1F [CBK282959],99.8381
6,c1ccc(Nc2nc(-c3ccc(N4CCOCC4)cc3)cn3ccnc23)cc1 [CBK066222],68.2914
7,Cc1ccc(Nc2c([N+](=O)[O-])nn(-c3ccccc3)[n+]2[O-])cc1F [CBK268414],99.4273
8,COc1cccn(CC(=O)N(C)CCc2scnc2C)c1=O [CBK306726],36.9414
9,COC[C@H](C)Nc1ccc(C(=O)N2CCC(N3CCOCC3)CC2)cn1 [CBK306917],55.7674
10,O=C(NC(=O)c1ccc(F)c(Cl)c1)Nc1nnc(C(F)(F)F)s1 [CBK076830],87.0686
11,CCc1nc2ccc(C(=O)NCc3cccs3)cn2c1N(C)CC [CBK145492],63.4988
12,CN(C)CCSc1cc(N2CCCC2)ncn1 [CBK105295],101.197
13,Nc1nc2c(nc(SCCc3ccccc3)n2C2OC(CO)C(O)C2O)c(=O)[nH]1 (centres unmarked) [CBK268686],83.502
14,COCC(=O)N1CCN2C(=O)c3cc(-c4ccccc4F)ccc3NC(=O)[C@H]2C1 [CBK289587],110.474
15,O=C(O)c1cccn1-c1cc(Cl)cc(Cl)c1 [CBK286932],89.2415
16,COC(=O)c1cc(C)nc2sc(C)c(N)c12 [CBK115343],92.7288
17,CC(C)(C)c1ccc(-n2cc(-c3ccc(Cl)cc3)nn2)cc1 [CBK113031],78.9701
18,CC(C)(O)C#Cc1ccc(C(=O)NCCC(=O)O)s1 [CBK267704],94.8353
19,CCCN1CCC(N2CCN(CCO)CC2)CC1 [CBK261920],98.5788
20,CCCn1cc(NC(=O)C2(c3ccccc3)CCC2)ccc1=O [CBK306237],105.967
21,COc1ccccc1NC(=O)c1sc2nc(N3CCOCC3)c3c(c2c1N)CCCC3 [CBK269247],73.2833
22,COC(=O)CNC(=O)c1ccc(S(=O)(=O)N2CCOCC2)cc1 [CBK264873],96.9733
23,O=C1NC2(CCSC2)C(=O)N1Cc1noc(-c2cccs2)n1 (centres unmarked) [CBK306225],38.8692
24,Cc1ccc2c(c1)oc(=O)n2CCNC(=O)CC1c2ccccc2Oc2ccccc21 [CBK286194],89.022
25,CN1CCN(c2ccc3ccn(S(=O)(=O)c4ccccc4Br)c3n2)CC1 [CBK200019C],82.9935
26,NC1CC(c2cc(NCc3cn4ccccc4n3)ncn2)C1 (centres unmarked) [CBK306631],89.4121
27,O=C(Cn1cnc2c(F)cc(Br)cc2c1=O)N1CCOC2CCCCC21 (centres unmarked) [CBK305229],43.481

row,Compound,% of control remaining
1,CC(C)C(=O)N1CC2(CCN(CCc3c[nH]c4ccccc34)CC2)c2ccccc21 [CBK126725],92.6802
2,COc1ccc(C(NC(=O)c2ccc(C(C)N3CCOCC3)o2)c2ccccc2)cc1 (centres unmarked) [CBK285748],71.8551
3,CN(C(=O)CSc1nc2ccccc2nc1Cc1ccc(Cl)cc1)C1CCCCC1 [CBK294411],96.6413
4,CC1(C)CC(=O)C2=C(C1)Nc1nc(SCc3ccc([N+](=O)[O-])cc3)[nH]c(=O)c1C2c1cccnc1 (centres unmarked) [CBK266096],77.8673
5,O=C1CCC(=O)N1CCOc1nccnc1OC1CCN(CCc2c[nH]c3ccccc23)CC1 [CBK084355],91.7633
6,O=C(O)c1ccc(S(=O)(=O)c2ccc3c(c2)C(=O)N(NC(=O)c2ccc(O)cc2)C3=O)cc1 [CBK264229],110.231
7,CCCNC(=O)Cn1nc(C)n2c(cc3ccsc32)c1=O [CBK284061],86.5989
8,c1ccc2c(CCN3CCN(c4nccnc4OC4CCCCC4)CC3)c[nH]c2c1 [CBK082847T],78.4188
9,CCN1CCC2CN(CCCC(c3ccc(F)cc3)c3ccc(F)cc3)CCN2C1=O (centres unmarked) [CBK024996],40.3825
10,CCCCSc1nc(N)cc(N2CCCN(C(=O)C3CCCO3)CC2)n1 (centres unmarked) [CBK307209],96.9802
11,Cc1ccc2[nH]c(Cc3ccc(NC(=O)c4nc5ccccc5n(C)c4=O)cc3)nc2c1 [CBK285802],91.7538
12,CNC(=O)c1sc2ccccc2c1C1CN(Cc2cn(C)c3ccc(F)cc23)CCO1 (centres unmarked) [CBK285868],78.6733
13,CCn1nncc1CNC1CCc2[nH]c3ccc(C)cc3c2C1 (centres unmarked) [CBK304749],52.8597
14,c1ccc(CNC2(Cc3cc(-c4ccccn4)on3)COC2)cc1 [CBK289643],94.3626
15,Cc1cc(-n2c(C)cc(C(=O)CSc3n[nH]c(=O)n3CC3CCCO3)c2C)no1 (centres unmarked) [CBK295589],103.144
16,Cc1cc(C)nc(NC(=O)C(C)Oc2ccc(Cl)cc2C)n1 (centres unmarked) [CBK268111],97.483
17,CC(=O)Nc1ccc(/C(C)=N/Nc2nc(N3CCCC3)nc(N3CCCC3)n2)cc1 [CBK021877],89.0763
18,CN1CCN(c2cccc(-c3ccsc3)n2)CC1 [CBK036916],89.386
19,CCCCCc1nnc(Nc2nc(C)cc(C)n2)[nH]1 [CBK288155],124.107
20,COc1cc2c(cc1OC)C(C)N(C(=O)CCC(=O)O)CC2 (centres unmarked) [CBK269873],76.9819
21,O=C(CSc1nnc2[nH]c(=O)ccn12)NCc1ccccc1Cl [CBK287684],89.5366
22,O=C(CSc1nnc(-c2cccs2)n1-c1ccccc1)Nc1ccnc2ccccc12 [CBK267487],104.299
23,CCN(CCO)c1ccc(Nc2cc(-c3ccc(C#N)cc3)ncn2)cc1 [CBK037764],83.8668
24,Cc1ccc(C2(CN3CCC(NC(=O)CO)CC3)CCCC2)cc1 [CBK282628],106.663
25,COc1cc2c(cc1OC)C1c3ccccc3N(Cn3nnc4ccccc43)C(=O)N1CC2 (centres unmarked) [CBK286193],83.0471
26,Cc1ccc(-n2c(C)cc(C(=O)CSc3n[nH]c(=O)n3C3CC3)c2C)cc1C [CBK296764],69.4933
27,Cc1cccc(-c2nc(=S)c3c(n2CCCN(C)C)CCCC3)c1 [CBK268406],87.7834

row,Compound,% of control remaining
1,COc1ccccc1CN(C1CCNCC1)S(=O)(=O)c1c(Cl)cccc1Cl [CBK160807T],82.1242
2,CN(C)CCNC(=O)Cn1c(-c2ccc(F)cc2)cc2cccnc21 [CBK284820],64.2204
3,Clc1cccc(CNc2cncc(-c3cccs3)n2)c1 [CBK065609],104.882
4,CC(C)N1CC[C@H]2CN(C(=O)CCC(=O)O)CC[C@H]2CC1=O [CBK288789],96.1639
5,O=C(c1ccccc1-n1cccc1)N1CCCC1 [CBK149608],87.5798
6,Cc1c(C(=O)O)sc(S(=O)(=O)N2CCN(C(=O)Cc3ccccc3)CC2)c1C(=O)O [CBK297148],93.3909
7,O=C1CN(C(=O)NCC2CCCCC2)CCN1 [CBK155854],97.4861
8,CCOc1cc(F)ccc1NC(=O)CC1CCN(c2nc(C)cc(C)n2)CC1 [CBK285958],87.5534
9,CN1CCN(NC(=O)c2cccc(COc3ccccc3Cl)c2)CC1 [CBK265765],65.5794
10,NC(=S)Nn1c(CCC(=O)O)ccc1-c1ccccc1 [CBK265942],105.243
11,COc1ccccc1CNC(=O)c1cnc2scc(C)n2c1=O [CBK287293],80.2825
12,Cc1ccc(CS(=O)(=O)N2CCC3(CC2)CNC(=O)C3)cc1 [CBK283344],79.6694
13,Cc1ccc(OC(C)c2nc(-c3nonc3N)no2)cc1C (centres unmarked) [CBK025698],88.5706
14,Nc1ccc(CCNC(=O)c2cnc(-c3cccc(C(F)(F)F)c3)c(-c3ccncc3)c2)cc1 [CBK037580],162.617
15,Fc1ccc(CSc2nc3ccccc3nc2C(F)(F)F)cc1 [CBK107199],104.263
16,CCn1ncc(CN2CCN(C(=S)Nc3ccccc3C(F)(F)F)CC2)c1C [CBK266968],122.8
17,COC(=O)c1cccc(Oc2nc(OC)cc(OC)n2)c1 [CBK092219],40.2118
18,Cn1c(SCC(=O)Nc2ccc(Br)cc2C(F)(F)F)nnc1-c1ccncc1 [CBK265905],62.6114
19,O=C(Cc1cccc(F)c1)N1CCC(O)(c2cccnc2F)CC1 [CBK284362],89.0114
20,COc1cc(/C=N/NC(=O)c2ccncc2)ccc1OC(=O)c1cccs1 [CBK262278],47.933
21,COc1cc(-c2nc(N)cc3ccccc23)cc(OC)c1OC [CBK085726],57.423
22,O=C(Nc1ccc(NC(=O)c2cc(O)nc3ccccc23)cc1)c1ccccc1 [CBK269722],101.886
23,O=C(N/N=C\c1ccc([N+](=O)[O-])o1)c1nc(-c2ccccc2)cc(-c2ccccc2)n1 [CBK261958],0.264
24,CC1(C)CC(=O)c2sc(NC(=O)c3ccc(OC(F)(F)F)cc3)nc2C1 [CBK144102],101.816
25,Nc1cc(NC(=O)c2cccc(C(=O)Nc3ccc(Cl)c(N)c3)c2)ccc1Cl [CBK261379],90.2887
26,CC1CC(NC(=S)NCc2csc3ccccc23)CC(C)(C)C1 (centres unmarked) [CBK013824],58.0263
